In the supplement of paper PMC12217912:
The other results are listed elsewhere or left out. The full chains were built here from the parent and the listed change. Inactive controls read about 0.05.

B1: TEV protease; numbered along this chain (parent)
chain: MGESLFKGPRDYNPISSSICHLTNESDGHTTSLYGIGFGPFIITNKHLFRRNNGTLVVQSLHGVFKVKDTTTLQQHLVDGRDMIIIRMPKDFPPFPQKLKFREPQREERICLVTTNFQTKSMSSMVSDTSCTFPSGDGIFWKHWIQTKDGQCGSPLVSTRDGFIVGIHSASNFTNTNNYFTSVPKNFMELLTNQEAQQWVSGWRLNADSVLWGGHKVFMVKPEEPFQPVKEATQL

Variants of: B1
Test: raw area under fraction-flipped curve 0-4 h after induction (AUC4h, not background-subtracted), DNA-recorder readout of cleavage of the substrate (dimensionless); higher = more cleavage of the substrate by the protease variant
Details: temperature: 34 °C; time window: 0-4 h after rhamnose induction
Experimental: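 In vivo DNA recorder in E. coli TOP10(DE3) ΔrhaA at 34 °C. Each TEVp single-site mutant (parent TEVp 0) is paired with a single-site variant of the 7-mer TEVs (canonical ENLYFQ|S). The substrate sits between flexible linkers in a Bxb1-sfGFP-TEVs-SsrA fusion, so cleavage stabilises Bxb1 and speeds flipping of a recombination array, read by NGS. The value is the raw area under the fraction-flipped curve over 0-4 h after rhamnose induction (AUC4h), with ≥20 reads per time point. It is not background-subtracted; inactive controls average about 0.047.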
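Further: Bxb1 expression induced with 0.2% (w/v) L-rhamnose at OD600 near 0.5, cultures sampled hourly, flipped fraction per protease–substrate barcode pair counted by paired-end Illumina sequencing.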

Row | Variant | area with substrate ANLYFQS | area with substrate FNLYFQS | area with substrate GNLYFQS | area with substrate HNLYFQS | area with substrate INLYFQS | area with substrate KNLYFQS | area with substrate NNLYFQS | area with substrate PNLYFQS | area with substrate QNLYFQS | area with substrate RNLYFQS | area with substrate SNLYFQS | area with substrate TNLYFQS | area with substrate VNLYFQS | area with substrate WNLYFQS | area with substrate YNLYFQS | area with substrate LNLYFQS | area with substrate MNLYFQS
1 | MGESLFKGPRDANPISSSICHLTNESDGHTTSLYGIGFGPFIITNKHLFRRNNGTLVVQSLHGVFKVKDTTTLQQHLVDGRDMIIIRMPKDFPPFPQKLKFREPQREERICLVTTNFQTKSMSSMVSDTSCTFPSGDGIFWKHWIQTKDGQCGSPLVSTRDGFIVGIHSASNFTNTNNYFTSVPKNFMELLTNQEAQQWVSGWRLNADSVLWGGHKVFMVKPEEPFQPVKEATQL [Y12A] | 0.0511 | 0.0555 | 0.0555 | 0.069 | 0.0691 | 0.0706 | 0.0626 | 0.0556 | 0.0583 | 0.0553 | 0.0312 | 0.0773 | 0.0658 | 0.0605 | 0.0392 | – | –
2 | MGESLFKGPRDYNPISSTICHLTNESDGHTTSLYGIGFGPFIITNKHLFRRNNGTLVVQSLHGVFKVKDTTTLQQHLVDGRDMIIIRMPKDFPPFPQKLKFREPQREERICLVTTNFQTKSMSSMVSDTSCTFPSGDGIFWKHWIQTKDGQCGSPLVSTRDGFIVGIHSASNFTNTNNYFTSVPKNFMELLTNQEAQQWVSGWRLNADSVLWGGHKVFMVKPEEPFQPVKEATQL [S18T] | 0.0748 | 0.0617 | 0.0833 | 0.0844 | – | 0.0704 | 0.0533 | 0.0712 | – | 0.047 | 0.0704 | – | – | 0.0633 | 0.0545 | 0.0606 | –
3 | MGESLFKGPRDYNPISSNICHLTNESDGHTTSLYGIGFGPFIITNKHLFRRNNGTLVVQSLHGVFKVKDTTTLQQHLVDGRDMIIIRMPKDFPPFPQKLKFREPQREERICLVTTNFQTKSMSSMVSDTSCTFPSGDGIFWKHWIQTKDGQCGSPLVSTRDGFIVGIHSASNFTNTNNYFTSVPKNFMELLTNQEAQQWVSGWRLNADSVLWGGHKVFMVKPEEPFQPVKEATQL [S18N] | 0.0566 | 0.0751 | – | 0.0471 | – | – | 0.0832 | 0.12 | 0.0626 | – | – | 0.0667 | 0.0664 | 0.0539 | 0.053 | 0.098 | 0.0713
4 | MGESLFKGPRDYNPISSMICHLTNESDGHTTSLYGIGFGPFIITNKHLFRRNNGTLVVQSLHGVFKVKDTTTLQQHLVDGRDMIIIRMPKDFPPFPQKLKFREPQREERICLVTTNFQTKSMSSMVSDTSCTFPSGDGIFWKHWIQTKDGQCGSPLVSTRDGFIVGIHSASNFTNTNNYFTSVPKNFMELLTNQEAQQWVSGWRLNADSVLWGGHKVFMVKPEEPFQPVKEATQL [S18M] | 0.0816 | – | – | – | 0.071 | 0.0643 | – | 0.0575 | – | – | 0.0545 | 0.0629 | 0.0675 | – | 0.0644 | – | 0.0701
5 | MGESLFKGPRDYNPISSSICHGTNESDGHTTSLYGIGFGPFIITNKHLFRRNNGTLVVQSLHGVFKVKDTTTLQQHLVDGRDMIIIRMPKDFPPFPQKLKFREPQREERICLVTTNFQTKSMSSMVSDTSCTFPSGDGIFWKHWIQTKDGQCGSPLVSTRDGFIVGIHSASNFTNTNNYFTSVPKNFMELLTNQEAQQWVSGWRLNADSVLWGGHKVFMVKPEEPFQPVKEATQL [L22G] | 0.0609 | – | 0.0488 | 0.0522 | – | 0.228 | – | – | – | – | 0.0362 | – | – | – | 0.062 | 0.0464 | –
6 | MGESLFKGPRDYNPISSSICHLTNESDGHTTSKYGIGFGPFIITNKHLFRRNNGTLVVQSLHGVFKVKDTTTLQQHLVDGRDMIIIRMPKDFPPFPQKLKFREPQREERICLVTTNFQTKSMSSMVSDTSCTFPSGDGIFWKHWIQTKDGQCGSPLVSTRDGFIVGIHSASNFTNTNNYFTSVPKNFMELLTNQEAQQWVSGWRLNADSVLWGGHKVFMVKPEEPFQPVKEATQL [L33K] | 0.0268 | – | – | 0.0492 | 0.0621 | 0.0667 | – | 0.0685 | – | – | 0.0507 | 0.0583 | 0.0571 | 0.0566 | 0.0521 | – | 0.0524
7 | MGESMFKGPRDYNPISSSICHLTNESDGHTTSLYGIGFGPFIITNKHLFRRNNGTLVVQSLHGVFKVKDTTTLQQHLVDGRDMIIIRMPKDFPPFPQKLKFREPQREERICLVTTNFQTKSMSSMVSDTSCTFPSGDGIFWKHWIQTKDGQCGSPLVSTRDGFIVGIHSASNFTNTNNYFTSVPKNFMELLTNQEAQQWVSGWRLNADSVLWGGHKVFMVKPEEPFQPVKEATQL [L5M] | 0.0616 | 0.0663 | 0.0839 | 0.068 | 0.114 | – | 0.0779 | 0.0704 | – | – | – | 0.0732 | 0.0707 | 0.0624 | 0.061 | 0.0524 | –
8 | MGESDFKGPRDYNPISSSICHLTNESDGHTTSLYGIGFGPFIITNKHLFRRNNGTLVVQSLHGVFKVKDTTTLQQHLVDGRDMIIIRMPKDFPPFPQKLKFREPQREERICLVTTNFQTKSMSSMVSDTSCTFPSGDGIFWKHWIQTKDGQCGSPLVSTRDGFIVGIHSASNFTNTNNYFTSVPKNFMELLTNQEAQQWVSGWRLNADSVLWGGHKVFMVKPEEPFQPVKEATQL [L5D] | 0.0593 | – | – | 0.0509 | – | – | – | 0.0602 | – | – | 0.075 | 0.0332 | – | 0.0545 | – | 0.0797 | 0.0634
9 | MGESRFKGPRDYNPISSSICHLTNESDGHTTSLYGIGFGPFIITNKHLFRRNNGTLVVQSLHGVFKVKDTTTLQQHLVDGRDMIIIRMPKDFPPFPQKLKFREPQREERICLVTTNFQTKSMSSMVSDTSCTFPSGDGIFWKHWIQTKDGQCGSPLVSTRDGFIVGIHSASNFTNTNNYFTSVPKNFMELLTNQEAQQWVSGWRLNADSVLWGGHKVFMVKPEEPFQPVKEATQL [L5R] | 0.0822 | – | 0.0818 | 0.0563 | – | – | – | 0 | – | – | 0.0787 | 0.0642 | 0.0735 | – | 0.0627 | – | –
